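Assay format: 96-well plates, 48-hour exposure. GI50 = concentration required for 50% inhibition of growth. Definition used: TGI = concentration required for complete inhibition of growth.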 Peptide text beside a SMILES is read from it. * marks the point of attachment. Cbz = O=C(OCc1ccccc1)*; CH2Cl = ClC*

In this assay the test system is NCI-H322M lung. In words: inhibition of tumour cell growth, NCI panel, 48 h.
As for `Cn1cc(C2=C(c3cn(CCCCO)c4ccccc34)C(=O)NC2=O)c2ccccc21`, the GI50 is 9.05 µM and the TGI was greater than 24.2 µM.
The molecule `CC(=O)Oc1c2c(c(O)c3ccccc13)C(n1cnc3c(ncn3C3OC(CO)C4OC(C)(C)OC43)c1=N)CCC2` (stereo not drawn) had a TGI of 34.6 µM.
In turn, `c1ccc(CCNc2ccccn2)nc1` had a TGI greater than 100 µM.
Same read-out and setting: to `Cc1ccc(/C=C/C(=O)c2sc(-c3nc(C)c(C(=O)/C=C/c4ccc(C)cc4)s3)nc2C)cc1` belongs greater than 100 µM; to `Nc1nc(SC/C=C/c2ccccc2)c2[nH]cnc2n1`, greater than 100 µM.
As for `O=C(Cn1c[n+](CC(=O)c2ccc(-c3ccccc3)cc2)c2ccccc21)Nc1cccc2cccnc12`, the GI50 is 2.8 µM and the TGI is 11.1 µM.
In the case of `CCN1CCC(O)(c2ccc(OC)cc2)C(C(=O)c2ccc(OC)cc2)C1` (stereo not drawn), the TGI is greater than 100 µM.
Regarding `COC(=O)C1=C(C(=O)NNc2ccccc2)N(c2cccnc2Cl)C(c2ccccc2)=CC1c1ccccc1` (stereo not drawn), the TGI is greater than 100 µM.
As to `COC(CNC(=O)C(C)NC(=O)/C=C/c1ccccc1)OC` (stereo not drawn), the TGI was greater than 100 µM.
On the same count and under the same terms, to `CC(O)C1(CNc2cc(Cl)nc(N)n2)CCC1` (stereo not drawn) belongs greater than 100 µM.
`COc1cccc2c1C(=O)c1c(O)c3c(c(O)c1C2=O)C[C@](O)(C(=O)CO)C[C@H]3O[C@@H]1C[C@@H](NC(=O)CCCCCN(C)C2(c3ccc(F)cc3)CC3CCC2C3)[C@H](O)[C@@H](C)O1` (stereo partly drawn): the GI50 is 7.38 µM and the TGI was 14 µM.
Consider `COc1ccc(/C=C2/N=C(c3ccccc3)N(c3c(C)n(C)n(-c4ccccc4)c3=O)C2=O)cc1OC`, for which the GI50 is 11.3 µM and the TGI was greater than 100 µM.
As to `CN(C)CCCN1CCC2(CCC(C(C)(C)C)CC2)CC1`, the TGI was found to be 4.79 µM.
Turning to `Cn1cc(NC(=O)Nc2cc(C(=O)Nc3cc(C(=O)Nc4ccc(S(=O)(=O)O)c5cc(S(=O)(=O)O)ccc45)n(C)c3)n(C)c2)cc1C(=O)Nc1cc(C(=O)Nc2ccc(S(=O)(=O)O)c3cc(S(=O)(=O)O)ccc23)n(C)c1`, the TGI is greater than 100 µM.
With `COc1cc(-c2cc(-c3cc4c([nH]c5ccccc54)c(-c4cc(OC)c(OC)c(OC)c4)n3)cc(-c3ccccc3)n2)cc(OC)c1OC`, the GI50 was 31.2 µM and the TGI is greater than 100 µM.
With `Cn1c(=O)n(C2(C)C[Se]C2)c2ccccc21`, the TGI is greater than 100 µM.
Turning to `Cn1cc(-c2csc(-c3c[nH]c4ccc(F)cc34)n2)c2cnccc21`, the GI50 was 1.79 µM and the TGI was 3.2 µM.
On to `CCOC(=O)C(=[N+]=[N-])[Si](C)(C)C`, for which the TGI worked out at 30.8 µM.
`[Cl][Hg][c]1cc[c]([Hg][Cl])o1`: the GI50 was 17.1 µM and the TGI was found to be 49.4 µM.
`O=Cc1[nH]c(=O)[nH]c(=O)c1C(=O)O` yielded a TGI greater than 100 µM.
`CC(C)=CC[C@]12CCN[C@H]1N(S(=O)(=O)c1ccccc1)c1ccccc12`: the TGI was found to be 67.2 µM.
Same read-out and setting: to `O=C(O)CCC(NC(=O)OCc1ccccc1)C(=O)NC(Cc1cnc[nH]1)C(=O)O` (stereo not drawn) (Cbz-Glu-His-OH; configuration not given here) belongs greater than 100 µM.
On the same count and under the same terms, to `O=C1C(c2c(O)[nH]c3ccc(F)cc23)=Nc2ccccc21` belongs greater than 100 µM; to `NC(=O)C(C(N)=O)=C(O)C(=O)/C=C(\O)c1ccccc1`, greater than 100 µM.
Turning to `CN1C(=O)N(C)C2C1NN=c1s/c(=C\c3ccc(Cl)cc3Cl)c(=O)n12` (stereo not drawn), the GI50 was 0.664 µM and the TGI was greater than 100 µM.
Molecule `CN1C2CCC1CC(=CCOC(c1ccc(F)cc1)c1ccc(F)cc1)C2` showed a TGI of 28.9 µM.
For the molecule `COc1ccc(/C=C2\N=C(SC)N(CN3CCOCC3)C2=O)cc1`, the TGI is greater than 100 µM.
The same measure, in the same setting: in the case of `CN=C(N=Nc1c(O)[nH]c2ccccc12)SCC(=O)c1ccc(Br)cc1` it was 58.1 µM; in that of `CN(C)CCC(=O)c1ccccc1`, greater than 100 µM.
Turning to `CCC[CH2][Sn]([Cl])([CH2]CCC)[CH2]CCC`, the GI50 was 0.115 µM and the TGI turned out to be 0.251 µM.
Molecule `O=[N+]([O-])/C(C(Cl)=C(Cl)Cl)=C(/Cl)Sc1ccccc1` displayed a TGI of 31 µM.
For the molecule `Nc1c(C(=O)Nc2ccncc2)sc2nc3c(cc12)CCCCCCCC3`, the GI50 was 0.896 µM and the TGI amounted to 1.78 µM.
In the same order, the values of `COc1ccc(-c2nc3ccc(-c4nc5ccc(N6CCN(c7ccccc7)CC6)cc5[nH]4)cc3[nH]2)cc1OC` are 1.99 µM and 4.85 µM.
With `Cn1c(=O)c(-c2ccccc2)c(N=[N+]=[N-])c2ccccc21`, the TGI is greater than 100 µM.
Same read-out and setting: in the case of `O=[N+]([O-])c1ccc2c(c1)C1=C(CO2)Cc2ccccc2O1` it was greater than 100 µM.
`CCOc1ccc(NC(=O)C(=O)CC(=O)c2c(C)n([O-])c3ccccc3[n+]2=O)cc1` gave a TGI greater than 100 µM.
As to `COC(=O)C(Cc1c[nH]c2ccccc12)NP(=O)(O)OCC1OC(n2cc(I)c(=O)[nH]c2=O)CC1O` (stereo not drawn), the TGI is greater than 100 µM.
The same measure, in the same setting: in the case of `O=C(O)C(NCc1ccccc1)C(NCc1ccccc1)C(=O)O` (stereo not drawn) it was greater than 100 µM; in that of `CCOC(=O)NC(Nc1ccc(S(=O)(=O)Nc2nc(C)cc(C)n2)cc1)(C(=O)OCC)C(F)(F)F` (stereo not drawn), greater than 100 µM.
Same read-out and setting: to `N#Cc1c(N)n(-c2cccc(C(=O)O)c2)c(=O)c2cc([N+](=O)[O-])ccc12` belongs greater than 100 µM.
Take `COc1ccc(-c2nn(-c3ccc(NC(=O)c4ccc(Cl)c(Cl)c4)cc3)cc2-c2ccncc2)cc1Cl`: the GI50 was greater than 50 µM and the TGI was greater than 50 µM.
The molecule `O=C(Nc1nc(C23CC4CC(CC(C4)C2)C3)cs1)c1cc2ccc(O)cc2oc1=O` had a TGI of 54.8 µM.
Turning to `C=C(C)[C@@H]1CC[C@]2(C)[C@H](CC=C3[C@@H]4CC(C)(C)CC[C@]4(C(N)=O)CC[C@]32C)[C@@]1(C)CCC#N`, the GI50 was 4.78 µM and the TGI was greater than 100 µM.
`CSc1nc(Nc2cccc(C(F)(F)F)c2)c2c(N)nn(C)c2n1` gave a TGI greater than 100 µM.
Turning to `CC1OC(OC2C(O)COC(OC3C(C)OC(OC4C(OC(=O)[C@]56CCC(C)(C)C[C@@H]5C5=CCC7[C@@]8(C)C[C@H](O)[C@H](OC9OC(CO)C(O)C(O)C9O)[C@@](C)(CO)[C@@H]8CC[C@@]7(C)[C@]5(C)CC6)OCC(O)C4O)C(O)C3OC3OCC(O)(CO)C3O)C2O)C(O)C(O)C1O` (stereo partly drawn), the TGI was 17.7 µM.
Still for that read-out and setting: in the case of `COc1cc(NS(C)(=O)=O)ccc1Nc1c2ccccc2nc2c1[nH]c1ccc(NC3OC(CO)C(O)C(O)C3O)cc12` (stereo not drawn) it was 2.41 µM; in that of `S=C(S)NCNC(=S)S.[Zn+2]`, greater than 100 µM; in that of `CC(C)CC(NC(=O)OCc1ccccc1)C(=O)NC(Cc1ccccc1)C(=O)CCl` (stereo not drawn) (Cbz-Leu-Phe-CH2Cl; configuration not given here), greater than 100 µM.
For `O=C(O)Cc1cc(Cl)ccc1O`, the TGI is greater than 100 µM.
The molecule `O=C(Oc1ccccn1)c1cc2cc(CCl)ccc2oc1=O` had a TGI greater than 100 µM.
On the same count and under the same terms, in the case of `Cc1cc(Cl)ccc1NC(=O)C(=O)Cc1nc2ccccc2o1` it was greater than 100 µM; in that of `C1CN2CCN3CCN4CCN1[P+]243`, greater than 100 µM.
`OC1C#CCSCC#C/C=C\1` (stereo not drawn): the TGI was greater than 100 µM.
The same measure, in the same setting: in the case of `COc1cc2c(C)cc(O)cc2c2cc(O)c(C)cc12` it was 23.1 µM; in that of `O=C1/C(=C/c2ccccc2S)N=C(c2ccccc2)N1c1nc2c(Cl)cc(Cl)cc2s1`, 71.4 µM.
Same read-out and setting: to `COC(=O)c1cc2ccc(N)nc2[nH]c1=O` belongs greater than 100 µM.
`CS(=O)(=O)CCNCc1nc(-c2ccc3ncnc(Nc4ccc(OCc5cccc(C(F)(F)F)c5)cc4)c3c2)cs1`: the GI50 is 5.91 µM and the TGI is greater than 25 µM.
Taken in the same sequence, the figures for `O=C(CSc1nc2ccccc2nc1-c1ccccc1)Nc1ccc(F)cc1` were 30.5 µM and greater than 100 µM.
For `CN(C)C1(N(C)C)Oc2c(c(=O)n(C)c(=O)n2C)C(c2ccccc2)C1(F)F` (stereo not drawn), the TGI is greater than 100 µM.
Still for that read-out and setting: to `CCOC(=O)CN1C(=O)c2ccc(NC(=O)C(=O)O)cc2S1(=O)=O` belongs greater than 100 µM.
`Nc1ncnc2c1ncn2[C@@H]1C[C@@H]1CO` returned a TGI greater than 100 µM.
Regarding `CNCC#Cc1c(F)ccc2c1/C(=C/c1[nH]ccc1OC)C(=O)N2`, the GI50 is 0.271 µM and the TGI was found to be 2.48 µM.
`Cn1nc(C(=O)N2CC(CCl)c3c2cc(N)c2ccccc32)cc1NC(=O)Nc1cc(C(=O)N2CC(CCl)c3c2cc(N)c2ccccc32)nn1C` (stereo not drawn) showed a TGI of 73.2 µM.
`Nc1nc(N)c2c3c(cnc2n1)CC(c1ccccc1)CC3` (stereo not drawn) returned a TGI of 63.6 µM.
On to `CC(=O)c1sc(Nc2nnc(-c3ccc(-c4nnc(Nc5nc(C)c(C(C)=O)s5)o4)cc3)o2)nc1C`, for which the TGI is greater than 100 µM.
Same read-out and setting: in the case of `CC(OC(C)(C)C)[C@H](NC(=O)OCC(Cl)(Cl)Cl)C(=O)O` (stereo partly drawn) it was greater than 100 µM.
Take `COc1ccc(C(=O)/C=C/c2cc(-c3cc(OC)c(OC)c(OC)c3)n[nH]2)cc1OC`: the GI50 is 1.52 µM and the TGI was 2.9 µM.
Take `Cc1cc(S(=O)(=O)Nc2n[nH]c(N)n2)c(SCC(=O)O)cc1Cl`: the TGI is greater than 10 µM.
Take `COc1cc(-n2cc(-c3ccc(F)cc3)[nH]c2=O)cc(OC)c1OC`: the GI50 was greater than 100 µM and the TGI is greater than 100 µM.
In the case of `CCSc1ncnc2c1ncn2C1OC(CO)C(O)C1O` (stereo not drawn), the GI50 is 0.609 µM and the TGI was greater than 51.4 µM.
Consider `C#C[C@]1(O)CCC2C3CCc4cc(O)ccc4C3CC[C@@]21C` (stereo partly drawn), for which the GI50 is 10.1 µM and the TGI worked out at 63.9 µM.
`CN1CCN(C(=S)N2CCN(C)CC2)CC1` registered a TGI greater than 100 µM.
On the same count and under the same terms, to `Cc1nc2c(nc1C)-c1[nH]c3c(c1C(=O)C2=O)CCCC3=O` belongs 26.6 µM; to `CC1CN(C(=O)CN2CCC(CCCCN(C)C)CC2)c2ccccc2NC1=O` (stereo not drawn), greater than 100 µM.
For `Oc1[nH]c2ccccc2c1N=NC(=S)Nc1cccc(Cl)c1`, the TGI came out at 71.7 µM.
Turning to `CO/N=C(\COc1ccc2c(c1)oc(=O)c1cc(OC)ccc12)c1ccc(OC)cc1`, the GI50 was greater than 100 µM and the TGI was greater than 100 µM.
Molecule `CCOC(=O)CC[C@H](NC(=O)[C@H](N)Cc1ccc(N(CCCl)CCCl)cc1)C(=O)OCC` returned a TGI greater than 70.3 µM.
Still for that read-out and setting: to `CC#CCOC(=O)c1ccccc1OC(C)=O` belongs greater than 100 µM; to `COc1ccc(CC2NCCc3c2[nH]c2ccccc32)cc1` (stereo not drawn), greater than 100 µM; to `CCC(/C=C/C1OC(=O)C=CC1C)=C\C(C)C/C=C/C(C)=C/C(C)C(=O)C(C)C(O)C(C)C/C(C)=C/C(=O)O` (stereo not drawn), 65.4 µM.
Consider `C=C(Cl)C(Br)(CCl)CCC(Br)C(C)(C)Cl` (stereo not drawn), for which the TGI was determined as 19.7 µM.
In turn, `CCCNC(=S)NNC(=O)CSc1nc(-c2ccccc2)c(-c2ccccc2)[nH]1` showed a TGI greater than 100 µM.

These data come from PubChem BioAssay (NCI).
